Measurements reported in PMC12040169 (PLOS Biology, 2025).
This is one part of the list.

tested on: T1, C. trachomatis L2/434/Bu expressing GFP (CTL2-GFP); design: species or system HeLa; C. trachomatis total inclusion area by high-content imaging, normalised to DMSO; details: total inclusion area; 28.5 h, 10 µM; inhibitor
T1 construct: L2/434/Bu GFP intracellular growth in HeLa cells
Method in brief: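 Bulk GFP and resorufin signals were read first. Wells were then fixed, stained with Hoechst and imaged to detect GFP inclusions and host nuclei. MICs followed the previously described calculation.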

Row | Compound | % of control remaining
1 | CCOc1ccc(NC(c2ccccc2)c2cc3cc(OC)ccc3[nH]c2=O)cc1 (centres unmarked) [CBK286157] | 136.668
2 | CC(C)Nc1cc(SCc2cccc(C(F)(F)F)c2)ncn1 [CBK107161] | 90.271
3 | O=C1Nc2ccc(-c3ccc4c(c3)OCO4)cc2C(=O)N2CCN(C(=O)CO)C[C@H]12 [CBK289593] | 82.3247
4 | CCC1CCCCN1C(=O)c1ccc(C)c(Cl)c1 (centres unmarked) [CBK082756] | 90.6426
5 | Cc1cc(C(F)(F)F)nn1CCNC(=O)c1cn2ccsc2n1 [CBK307260] | 69.7217
6 | O=C(NCc1ccc2c(c1)OCO2)N1CCCCC1CO (centres unmarked) [CBK156166] | 97.7652
7 | CC(=O)Nc1ccc(-c2cc(Nc3ccc(NC(=O)c4ccc(N)cc4)cc3)ncn2)cc1 [CBK091103] | 78.4252
8 | Brc1csc(CNc2ccc3cn[nH]c3c2)c1 [CBK021216] | 51.1976
9 | COc1cc(C(=O)NCc2ccc(-c3csnn3)cc2)cc(OC)c1OC [CBK149308] | 116.734
10 | Cc1onc(-c2ccccc2Cl)c1C(=O)Nc1ccc(CC(=O)O)cc1 [CBK269623] | 71.54
11 | CCCCCn1c(O)nnc1SCc1csc(CS(=O)(=O)c2ccc(Cl)cc2)n1 [CBK007176] | 88.5158
12 | CCCn1nnc(NC(=O)C(C)Oc2ccc(Cl)cc2Cl)n1 (centres unmarked) [CBK266772] | 103.32
13 | Cn1c(=O)oc2cc(S(=O)(=O)N3CCN(C4CCCCC4)CC3)ccc21 [CBK268865] | 101.641
14 | COc1ccc(CN2CCCN(S(=O)(=O)c3ccc(C(=O)c4ccccc4)cc3)CC2)cc1F [CBK062855] | 71.3655
15 | CCn1c(SCC(=O)Nc2c(Cl)cc(Cl)cc2Cl)nnc1-c1ccccc1F [CBK268609] | 96.0415
16 | O=C(c1ccc2ccccc2c1)N1CCC2(CC1)CN(Cc1ccccc1)CCO2 [CBK161118A] | 93.8963
17 | O=C(Nc1ccc(F)cc1)c1[nH]c2ccccc2c1NS(=O)(=O)c1cc(Cl)sc1Cl [CBK050094] | 33.9644
18 | Cc1cccc(N2CCN(CCCOc3ccc(F)c(F)c3)CC2)n1 [CBK025158C] | 93.0348
19 | NS(=O)(=O)c1cc(C(=O)O)ccc1Cl [CBK113676] | 146.385
20 | O=C(NNC(=O)c1cc2ccccc2cc1O)Nc1cccc([N+](=O)[O-])c1 [CBK266882] | 103.589
21 | CC(=O)c1ccc(-c2cnc(Nc3ccc(N4CCOCC4)cc3)c3nccn23)s1 [CBK091231] | 157.559
22 | Cc1ccc(N(CC(=O)Nc2cccnc2)S(=O)(=O)c2ccc(F)cc2)cc1 [CBK263332] | 78.8199
23 | O=C(c1ccccc1Br)N1CCCCC1 [CBK028504] | 35.6023
24 | CC1C(=O)N(c2ccc(Cl)c(Cl)c2)C(=N)N1c1nc(N(C)C)nc(N(C)C)n1 (centres unmarked) [CBK263182] | 111.68
25 | Cn1nc(C2CCCN(C(=O)c3cccc(F)c3)C2)c2cccnc21 (centres unmarked) [CBK282155] | 106.065
26 | Cc1nc(N2CCCCC2)ncc1C(=O)NCc1nonc1C [CBK307243] | 87.5318
27 | CC(=O)N1CCCC(c2[nH]c3cccnc3c2CN(C)C)C1 (centres unmarked) [CBK283469] | 85.3982

Row | Compound | % of control remaining
28 | O=C(Nc1cccc(-c2nnn[nH]2)c1)c1ccc(C2CCCCC2)cc1 [CBK296712] | 88.1762
29 | Cc1nc(S(=O)(=O)N2CCC(C(=O)N3CCCCC3)CC2)cn1C [CBK305963] | 43.1354
30 | CC(=O)c1ccc(-c2ccc(C(=O)N(C)CCN(C)C)c(N(C)C)n2)s1 [CBK106071] | 107.086
31 | CC(C)c1ccc(/C=C/C(=O)NCc2ccccc2)cc1 [CBK149635] | 104.201
32 | OCCCN1CCC(Oc2cncc(OCCN3CCOCC3)n2)C1 (centres unmarked) [CBK084494] | 91.3306
33 | COc1ccc2c(c1)C1(CC(=O)N(CC(=O)N(C)C)C1=O)C(=O)N2CC(=O)c1ccccc1 (centres unmarked) [CBK075913] | 94.1725
34 | CCOC(=O)C(Cc1ccccc1)NC(=O)c1ccc(C)nc1 (centres unmarked) [CBK305952] | 69.5981
35 | COc1cc2c(cc1NC(=O)C/C(C)=N/NC(=O)c1ccccc1F)oc1ccccc12 [CBK262437] | 102.932
36 | CS(=O)(=O)N1C[C@@H]2CCCCN(Cc3cccc(F)c3F)[C@@H]2C1 [CBK285513] | 84.2671
37 | CC(=O)Nc1ccc(-c2ccc(C(=O)NCc3ccc(OC(F)(F)F)cc3)cn2)cc1 [CBK158830] | 103.932
38 | CC(=O)Nc1ccc(F)c(NC(=O)NCC2CCOC2)c1 (centres unmarked) [CBK304388] | 96.6723
39 | O=C(Nc1cccc2cccnc12)c1ccc([N+](=O)[O-])o1 [CBK268007] | 54.9135
40 | O=C(O)c1ccc(S(=O)(=O)N2CCOCC2)cc1 [CBK287201] | 106.969
41 | S=C(NCCCN1CCOCC1)Nc1ccccc1Cl [CBK264599] | 98.0065
42 | Cn1cc(CN2CCN(CC3(c4ccccc4)CC3)CC2)cn1 [CBK282794] | 72.4068
43 | Cc1ccc(S(=O)(=O)NC(C)C(=O)Nc2cc(C(F)(F)F)ccc2Cl)cc1 (centres unmarked) [CBK266546] | 93.5506
44 | Cn1nccc1CN1CCCC(COc2ccc(F)cc2)C1 (centres unmarked) [CBK281899] | 95.3697
45 | O=[N+]([O-])c1ccccc1S(=O)(=O)Nc1cc(C(F)(F)F)ccc1Cl [CBK015721] | 85.3559
46 | COCCN1CC(CNC(=O)c2cccc(F)c2O)CC1=O (centres unmarked) [CBK304386] | 62.1825
47 | O=C1CN(C(=O)NCCc2c[nH]c3ccccc23)CCN1 [CBK155866] | 83.891
48 | O=C(c1ccc2ccccc2c1)C12CN3CN(CN(C3)C1)C2 [CBK009031] | 108.126
49 | Cn1cc(C(=O)NC(Cc2ccsc2)c2cccnc2)cn1 (centres unmarked) [CBK285118] | 93.999
50 | Cc1cc(C)cc(NS(=O)(=O)c2ccc(NC(=O)C(C)Oc3ccc(Cl)cc3Cl)cc2)c1 (centres unmarked) [CBK264894] | 78.4984
51 | CN1CCN(CCCOc2ccc(OCc3ccccc3)cc2)CC1 [CBK265077] | 100.877
52 | CN1CCN(C(C(=O)O)c2c[nH]c3cc(OCc4ccccc4)ccc23)CC1 (centres unmarked) [CBK286654] | 83.231
53 | Nc1nc(-c2ccc(Cl)cc2)c(CC(=O)O)s1 [CBK287188] | 117.53
54 | COc1nc2ccccc2nc1CCc1nc(-c2ccccc2)no1 [CBK269840] | 106.663

Row | Compound | % of control remaining
55 | O=C(Cc1csc(-c2ccc(Cl)cc2)n1)Nc1cccnc1 [CBK107300] | 108.076
56 | CC(C)[C@@H](CO)Nc1nc(-c2cccc(Br)c2)cnc1N [CBK063758] | 66.3082
57 | CC(C)Nc1ccc(C(=O)N2CCC(N3CCOCC3)CC2)cn1 [CBK304353] | 37.5274
58 | CCOc1ccc(-c2ccnc(N3CCCC(C)(O)C3)n2)cc1C(=O)O (centres unmarked) [CBK307652] | 55.3549
59 | Clc1ccc(Cl)c(-c2ccc(CNCCCN3CCOCC3)o2)c1 [CBK278190C] | 104.161
60 | CC(NC(=O)C1C2CCC(CC2)C1C(=O)O)c1ccncc1 (centres unmarked) [CBK287061] | 106.029
61 | Cc1ccc(C2CCCN2C(=O)c2cccn(CC(=O)Nc3ccc(F)cc3)c2=O)cc1C (centres unmarked) [CBK286528] | 111.697
62 | COc1ccc(C2Oc3cccnc3N(CCCN(C)C)C2=O)cc1 (centres unmarked) [CBK007694] | 69.8596
63 | NNC(=O)C(NC(=O)c1ccccc1)c1n[nH]c(=O)c2ccccc12 (centres unmarked) [CBK261144] | 87.3265
64 | O=C(O)COc1ccc(Br)cc1/C=N/Nc1ccccn1 [CBK262369] | 87.3666
65 | CCn1c2cc(C)oc2c2cnn(CC(=O)N3CCCC3)c(=O)c21 [CBK284215] | 72.2319
66 | Cc1ccc(C(=O)Nc2cccc(CCc3ccncc3)c2)c(=O)n1C [CBK285556] | 69.8606
67 | COc1ccc([C@@]23CC[C@@H](NC(=O)Nc4cccc5nsnc45)C[C@@H]2N(C)CC3)cc1OC [CBK038874T] | 79.7662
68 | Nc1ncc(-c2cncnc2)nc1-c1ccc(CCC(=O)O)cc1 [CBK064120] | 138.101
69 | NC(=O)c1c(NC(=S)NC(NC(=O)c2ccco2)C(Cl)(Cl)Cl)sc2c1CCCC2 (centres unmarked) [CBK261055] | 81.0743
70 | Cc1ccc2nc(NC(=O)C(C)(C)C)nc(O)c2c1 [CBK021975] | 60.7748
71 | Cn1cncc1CN1C[C@@H]2CCCN2C[C@@H]1Cc1ccccc1 [CBK283027] | 96.8426
72 | CC(=O)N1CCOc2ccccc21 [CBK050388] | 65.8974
73 | COc1ccc(C2CCN(Cc3ccncc3)CC2)cc1 [CBK283563] | 92.8515
74 | C[C@@H](Nc1nccnc1-c1ccc(C(=O)N2CCOCC2)cc1)c1ccccc1 [CBK037058] | 68.52
75 | OC12CCCCC1CN(Cc1nc3ccccc3[nH]1)CC2 (centres unmarked) [CBK282995] | 93.8987
76 | O=C(c1ccccc1)c1ccc2n1CCC2C(=O)Nc1ccccc1F (centres unmarked) [CBK300530] | 79.8578
77 | COc1ccc(C(=O)Nc2nc3c(C)c(C)ccc3s2)cc1 [CBK291210] | 84.3168
78 | O=[N+]([O-])c1ccccc1S(=O)(=O)NCCSCc1ccc(Cl)c(Cl)c1 [CBK058810] | 88.7239
79 | Cc1nc2c(OCC3CCCCC3)cccn2c1N(C)CC1CC1 [CBK147279] | 47.9232
80 | COc1cc(-c2cc(-c3ccccc3)nc(SCC(=O)O)c2C#N)cc(OC)c1OC [CBK131867] | 76.8948
